Measurements reported in PubChem BioAssay AID624417 (National Center for Advancing Translational Sciences (NCATS), 2012).
The campaign covered roughly 410,000 compounds. About 6,400 (1.6%) were called active. Inconclusive results, whose numbers are uncertain, are shown with a selection of clear calls. Calls follow the shape of the dose curve; as a rule, active = well fitted inhibition curve with a large enough effect; inconclusive = small, poorly fitted or top-dose-only effect; inactive = no such curve, though single readings can be large or run the other way. No potency is given beside an inconclusive call; the fits are too rough. Some structures have more than one record in an assay (separate samples or runs), and their calls can disagree.

Target: Glucagon-like peptide 1 receptor (Homo sapiens) (UniProt P43220)
Assay: qHTS of GLP-1 Receptor Inverse Agonists (Inhibition Mode); also: nearly all actives have a fitted effect of over 55% in size
Settings: HEK293 GLP-1R CRE-luciferase, luminescence, 24 h, GLP-1R form is constitutively active; activity change, negative = inhibition: at 38.3 µM (top of the series) unless noted
Outline: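 Luminescence readout: a drop in cAMP-driven luciferase signal flags inverse agonism at a constitutively active GLP-1R stably expressed in HEK293. Compound exposure lasted 24 hr at 37 deg C, 5% CO2.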
% is scaled to controls: 0 for no effect and ±100 for the full control effect; potency is read from the fitted curve at half-maximal effect; tags tell the direction and shape of the fitted curve.

UniProt P43220, sequence (P43220 whole entry, looked up): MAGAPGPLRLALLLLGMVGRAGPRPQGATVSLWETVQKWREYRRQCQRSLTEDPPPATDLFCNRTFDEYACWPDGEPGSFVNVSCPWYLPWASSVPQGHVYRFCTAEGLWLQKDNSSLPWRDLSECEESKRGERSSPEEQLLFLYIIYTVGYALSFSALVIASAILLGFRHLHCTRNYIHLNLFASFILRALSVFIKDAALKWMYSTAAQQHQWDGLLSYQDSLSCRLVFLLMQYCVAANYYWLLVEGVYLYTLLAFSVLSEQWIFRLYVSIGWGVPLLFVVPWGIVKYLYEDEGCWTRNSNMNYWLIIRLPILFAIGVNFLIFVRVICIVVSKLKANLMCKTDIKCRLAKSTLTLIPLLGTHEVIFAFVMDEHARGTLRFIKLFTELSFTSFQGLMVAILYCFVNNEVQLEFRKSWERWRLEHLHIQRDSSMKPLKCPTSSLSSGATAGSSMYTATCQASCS

Compound	Potency	activity change, negative = inhibition
O=C(NCC(c1ccco1)N1CCCCC1)c1ccc(NS(=O)(=O)c2ccc(F)cc2)cc1 (centres undefined)	inconclusive [inhibitor, partial curve, poor fit]	
CCc1ccc(NC(=O)c2c(Cl)nc(C)c(Cl)c2C)cc1	active: 3.98 µM	
COc1ccccc1NC(=O)c1cc(C(=O)Nc2ccccc2OC)n(C)n1		inactive: 18.3%
CC1CCCCN1CC(=O)Nc1ccc(N2CCCCCC2)cc1 (centres undefined)	inconclusive [inhibitor, partial curve, poor fit]	
CCNC(=S)NNC(=O)C(c1ccccc1)c1ccccc1		inactive: 0.482%
CCOC(=O)c1ccc(N2C(=O)c3[nH]nc(-c4ccccc4)c3C2c2cccs2)cc1 (centres undefined)	inconclusive [inhibitor, partial curve, poor fit]	
Fc1ccc(CNC(=S)Nc2ccc(Cl)cc2Cl)cc1	inconclusive [inhibitor, single point]	
O=C(c1ccccc1Cc1ccccc1)N1CCN(S(=O)(=O)c2ccccc2F)CC1	inconclusive [inhibitor, partial curve, poor fit]	
CCN(CC)CCOc1ccc(C=NNc2nc3c([nH]2)c(=O)n(C)c(=O)n3C)cc1		inactive: 5.72%
O=C(NCCCN1CCOCC1)c1ccc(-n2nc(C(F)(F)F)cc2-c2cccs2)cc1	inconclusive [inhibitor, partial curve]	
Cc1cc(C)nc(-n2nc(C)c3c2NC(=O)CC3c2ccccc2OC(C)C)n1 (centres undefined)		inactive: 9.92%
COC(=O)C1=C(C)NC(C)=C(C(=O)OC)C1c1ccc(-c2cccc(Cl)c2Cl)o1	inconclusive [inhibitor, partial curve, poor fit]	
O=C(CSc1nc2c(c(=O)[nH]1)CN(Cc1ccc(F)cc1)CC2)Nc1cccc(C(F)(F)F)c1	inconclusive [inhibitor, single point]	
O=C1N[C@@H](c2ccccc2)COC(=O)[C@H](Cc2ccc(F)cc2)C/C=C\C[C@@H]1CC(=O)N(CCO)Cc1ccccc1	inconclusive [inhibitor, single point]	
COc1cc(/C=C/C(=O)OCC(=O)NCc2ccco2)ccc1O	inconclusive [inhibitor, partial curve, poor fit]	
N#Cc1c2c(c(Nc3ccc(F)cc3)n3c1nc1ccccc13)CCCC2		inactive: 15.9%
O=C(CN1C(=O)COc2ccc(S(=O)(=O)Nc3ccccc3)cc21)NCc1ccccc1Cl	inconclusive [inhibitor, partial curve, poor fit]	
Cc1c(C(=O)OC2CCCCCC2)[nH]c2c1C(=O)CC(c1ccccc1Cl)C2 (centres undefined)	inconclusive [inhibitor, partial curve, poor fit]	
Cn1nc(C(F)(F)F)c(C#N)c1N1CCN(c2ccccn2)CC1	inconclusive [inhibitor, single point]	
COc1ccc2c(c1)CCc1c(C(=O)N3CCCCCC3)noc1-2	inconclusive [inhibitor, partial curve, poor fit]	
Cc1c(C(=O)OCC(=O)N2C(C)CCCC2C)oc2ccccc12 (centres undefined)	inconclusive [inhibitor, single point]	
CCN(CC)CCNC(C(=O)Nc1cc(C(F)(F)F)ccc1Cl)c1ccccc1 (centres undefined)	inconclusive [inhibitor, partial curve, poor fit]	

Compound	Potency	activity change, negative = inhibition
CCOC(=O)c1sc(=S)n(CC)c1NC(=O)C1CC1	inconclusive [inhibitor, single point]	
COc1cccc(NC(=O)c2ccc(CN3CCc4ccccc4C3)cc2)c1	inconclusive [inhibitor, partial curve, poor fit]	
Cc1ccc(S(=O)(=O)N(CC(=O)Nc2ccccc2-c2ccccc2)c2ccc(C)cc2C)cc1	inconclusive [inhibitor, full curve]	
CC1CCN(S(=O)(=O)c2cn(CC(=O)Nc3cccc(C#N)c3)cn2)CC1	inconclusive [inhibitor, single point]	
CCCCNCc1cc(Br)c(OCC(=O)NCc2ccccc2)c(OC)c1	inconclusive [inhibitor, partial curve]	
CCCn1c(C)cc(C(=O)COC(=O)c2ccc(Cl)c(S(=O)(=O)N3CCCC3)c2)c1C	inconclusive [inhibitor, partial curve, poor fit]	
COc1c(CC=C(C)C)cc(C2CC(=O)c3c(O)cc(O)cc3O2)cc1CC=C(C)C (centres undefined)	inconclusive [inhibitor, partial curve, poor fit]	
O=C(Nc1cccc(Cl)c1)Nc1nnc([C@@H]2C[C@H](O)[C@@H](CO)O2)s1	inconclusive [inhibitor, single point]	
Cc1ccc(/C=N/n2c(COc3ccccc3)n[nH]c2=S)cc1		inactive: -9.38%
CCOC(=O)c1c(C)[nH]c(C)c1C(=O)COC(=O)c1cccc(S(=O)(=O)NC)c1	inconclusive [inhibitor, partial curve, poor fit]	
CC(C)Nc1nc(NC(C)C)nc(SCCOC(=O)Nc2ccc(Cl)cc2Cl)n1	inconclusive [inhibitor, partial curve, poor fit]	
CCOC(=S)SCc1cn2cccc(C)c2n1	inconclusive [inhibitor, partial curve, poor fit]	
CC1CCN(C(=S)NC(=O)c2cccc([N+](=O)[O-])c2)CC1		inactive: 5.52%
COc1cccc(NC(=O)[C@H](NC(=O)[C@@H]2Cc3ccccc3CN2)c2ccccc2)c1	inconclusive [inhibitor, partial curve, poor fit]	
COc1ccccc1C(O)(C(=O)NNc1cccc(C)c1)c1ccccc1OC	inconclusive [inhibitor, partial curve, poor fit]	
O=S1(=O)c2ccccc2N(Cc2ccccc2Cl)c2ccccc21		inactive: 18.4%
O=C(NCC1CCCO1)c1cccc(S(=O)(=O)N(Cc2ccccc2)c2ccccc2)c1 (centres undefined)	inconclusive [inhibitor, single point]	
Oc1c(C(Nc2cccc(C(F)(F)F)c2)c2cccnc2)ccc2cccnc12 (centres undefined)	inconclusive [inhibitor, single point]	
COc1ccc(CCNC(=O)c2cc3c(=O)n(C)c4cc(Cl)ccc4c3s2)cc1OC		inactive: 14.3%
COc1ccc(-c2[nH]c(-c3ccccc3)nc2SCC(=O)NC2CCCC2)cc1	active: 10 µM	
COc1ccc(OC)c(/C=C2\SC(=S)N(NS(=O)(=O)c3ccccc3)C2=O)c1	inconclusive [inhibitor, partial curve, poor fit]	
CSc1nnc([C@H](C)NC(=O)OC(C)(C)C)o1		inactive: -0.67%

Compound	Potency	activity change, negative = inhibition
Cc1cc(C)nc(CCNC(=O)C2CCC(=O)N(Cc3ccccc3F)C2)n1 (centres undefined)		inactive: 24.7%
O=C1c2ccccc2C(=O)N1CC#CCN1CCN(C(c2ccccc2)c2ccccc2)CC1	inconclusive [inhibitor, partial curve, poor fit]	
CC(=O)OC[C@@H]1CN(Cc2ccccc2)C[C@H](n2cnc3c(NCc4ccco4)ncnc32)O1		inactive: 7.04%
Cc1ccc(C2c3cccn3CCN2S(=O)(=O)c2ccc([N+](=O)[O-])cc2)cc1 (centres undefined)	inconclusive [inhibitor, partial curve, poor fit]	
Cc1cccc(NC(=O)CSCc2cc(=O)n3c(C)csc3n2)c1C		inactive: 8.27%
O=C(Nc1nccs1)c1cn(-c2ccccc2)nc1-c1ccccc1	inconclusive [inhibitor, partial curve, poor fit]	
CC12CCC3(CO)COC(c4ccccc4O1)C2C3 (centres undefined)	inconclusive [inhibitor, single point]	
CCOc1cc(N2C(=O)CC3CS(=O)(=O)CC32)c(OCC)cc1NC(=O)c1ccccc1 (centres undefined)		inactive: 24.9%
Cc1cc(C(=O)Nc2ccc3[nH]ccc3c2)no1		inactive: 1.41%
OC(COc1ccc(-c2ccccc2)cc1)CN1CCCCC1 (centres undefined)	inconclusive [inhibitor, single point]	
COc1ccc(Cc2nnc(NC(=O)c3cc(OC)cc(OC)c3)s2)cc1	inconclusive [inhibitor, partial curve, poor fit]	
COc1ccccc1N1CCN(C(=O)CCSCc2ccccc2F)CC1	inconclusive [inhibitor, single point]	
CC(/C=N/NC(=O)Cc1cccn1C)=C\c1ccccc1		inactive: 6.52%
CN[C@H]1C[C@H]2c3[nH]c4ccc(-c5cccc(C)c5)cc4c3CCN2C[C@H]1[C@H](C)O	active: 11.2 µM	
COc1ccc(Oc2nc(C)cc(C)c2S(=O)(=O)c2ccc(C)cc2)cc1	inconclusive [inhibitor, single point]	
CCn1cc2nc(SCc3cc(C)ccc3C)n(Cc3ccc(C)cc3)c(=O)c2n1		inactive: -5.76%
Cc1ccc(S(=O)(=O)n2ccc3c(OCCOCCNCc4ccc(F)cc4)cccc32)cc1		inconclusive: -95.6% [inhibitor]
O=C(Nc1ccccc1)N1CCC(C(=O)N2CCN(c3ccccc3F)CC2)CC1	inconclusive [inhibitor, single point]	
Cc1oc(-c2ccccc2F)nc1Cn1c(SCc2ccccc2F)nc2ccncc21	inconclusive [inhibitor, single point]	
COc1ccc(Cl)cc1NC(=O)CSc1nc(Nc2ccccc2)nc(N2CCOCC2)n1	inconclusive [inhibitor, partial curve]	
